195 variants from a collection of fitness landscapes (doi:10.1126/science.1257360) can be followed below.

The list shows a part of the results.

First the molecules themselves.
B1: PhoQ; a variant is named by its letters at X, in order, P23837 (parent)
chain: MKKLLRLFFPLSLRVRFLLATAAVVLVLSLAYGMVALIGYSVSFDKTTFRLLRGESNLFYTLAKWENNKLHVELPENIDKQSPTMTLIYDENGQLLWAQRDVPWLMKMIQPDWLKSNGFHEIEADVNDTSLLLSGDHSIQQQLQEVREDDDDAEMTHSVAVNVYPATSRMPKLTIVVVDTIPVELKSSYMVWSWFIYVLSANLLLVIPLLWVAAWWSLRPIEALAKEVRELEEHNRELLNPATTRELTSLVRNLNRLLKSERERYDKYRTTLTDLTHSLKTPLXXLQXXLRSLRSEKMSVSDAEPVMLEQISRISQQIGYYLHRASMRGGTLLSRELHPVAPLLDNLTSALNKVYQRKGVNISLDISPEISFVGEQNDFVEVMGNVLDNACKYCLEFVEISARQTDEHLYIVVEDDGPGIPLSKREVIFDRGQRVDTLRPGQGVGLAVAREITEQYEGKIVAGESMLGGARMEVIFGRQHSAPKDE

The variants in the assay derive from B1. Kind of assay: enrichment ratio after two sorts for PhoP signalling (ratio (wild type AVST 3.29)); higher = more functional. The settings on record: with PhoP (E. coli).
Regarding GLDD, the enrichment ratio is at most 0.25.
The result for IEEV reads at most 0.25.
The same measure for VVAM: at most 0.25.
As for KIHA, the enrichment ratio is at most 0.25.
On to PENI, for which the enrichment ratio was at most 0.25.
As to KFQQ, the enrichment ratio is at most 0.25.
In the case of ISPV, the enrichment ratio is at most 0.25.
The same measure for LCDI: at most 0.25; for QDYE: at most 0.25; for AQCA: 32.5.
QPSC: the enrichment ratio was at most 0.25.
For LWIG, the enrichment ratio was at most 0.25.
In the case of MTGD, the enrichment ratio was at most 0.25.
The result for MEFI reads 5.13; that for FHRI, at most 0.25; that for HYAE, at most 0.25.
Regarding HLYT, the enrichment ratio was at most 0.25.
On to ALHK, for which the enrichment ratio is at most 0.25.
The same measure for TVSC: 6.5; for MVFG: at most 0.25.
The same measure for ESVD: at most 0.25.
With QNIL, the enrichment ratio was at most 0.25.
The same measure for TMDP: at most 0.25; for IKMW: at most 0.25.
Take MTYY: the enrichment ratio came to 0.96.
The same measure for RVNK: at most 0.25; for EKPI: at most 0.25; for RHYW: at most 0.25.
The same measure for VGRQ: at most 0.25; for TMPW: at most 0.25; for KDRQ: at most 0.25.
The same measure for DDHA: at most 0.25; for YHEH: at most 0.25.
As to GTDC, the enrichment ratio is at most 0.25.
Consider KAEF, for which the enrichment ratio was at most 0.25.
PPQG: the enrichment ratio is at most 0.25.
Regarding DQSK, the enrichment ratio is at most 0.25.
Consider NPRF, for which the enrichment ratio is at most 0.25.
On to WAFS, for which the enrichment ratio was at most 0.25.
The result for KSDM reads at most 0.25; that for FTRT, at most 0.25; that for IKSI, at most 0.25.
Consider VNIP, for which the enrichment ratio was at most 0.25.
The same measure for EHPT: at most 0.25.
For CTLT, the enrichment ratio is at most 0.25.
For the variant SNRA, the enrichment ratio is at most 0.25.
The same measure for LPEH: at most 0.25.
As to DCWA, the enrichment ratio is at most 0.25.
In the case of HITN, the enrichment ratio was at most 0.25.
The result for LCWR reads at most 0.25; that for LADR, at most 0.25; that for HILV, at most 0.25.
The result for MGMR reads at most 0.25.
The same measure for HEKR: at most 0.25; for QHVC: at most 0.25.
Consider DWCK, for which the enrichment ratio was at most 0.25.
For RDGT, the enrichment ratio was at most 0.25.
Turning to TYHR, the enrichment ratio was at most 0.25.
The same measure for ARKC: at most 0.25.
As to SFTK, the enrichment ratio is at most 0.25.
The result for SQKT reads at most 0.25.
The result for RNKP reads at most 0.25.
For YEIH, the enrichment ratio is at most 0.25.
The result for DGHT reads at most 0.25.
The same measure for MIPW: at most 0.25; for WTGM: at most 0.25; for DITA: at most 0.25.
For the variant DQVL, the enrichment ratio is at most 0.25.
The result for IDDT reads at most 0.25; that for TDVM, 4.33.
Turning to MLGW, the enrichment ratio is at most 0.25.
The result for DYLA reads at most 0.25.
The result for TTPK reads at most 0.25; that for LCSA, at most 0.25; that for PRWI, at most 0.25.
The same measure for VSQG: at most 0.25; for YEWG: at most 0.25; for FFRP: at most 0.25.
PLTF: the enrichment ratio was at most 0.25.
The same measure for QFNE: at most 0.25; for TFSS: 11.4.
The same measure for ACPR: at most 0.25; for WLAI: at most 0.25; for RIGM: at most 0.25.
For NRDL, the enrichment ratio is at most 0.25.
For FLED, the enrichment ratio is at most 0.25.
As for EVFD, the enrichment ratio was at most 0.25.
Regarding RANI, the enrichment ratio was at most 0.25.
The result for FSVW reads at most 0.25; that for TIMI, 2.5.
The same measure for YAIG: at most 0.25; for MGNL: at most 0.25; for PNNV: at most 0.25.
On to HDEK, for which the enrichment ratio is at most 0.25.
The result for TAIP reads at most 0.25; that for MWSR, at most 0.25.
For LKCF, the enrichment ratio is at most 0.25.
The result for HFQE reads at most 0.25; that for KMQC, at most 0.25; that for DVKS, at most 0.25.
SHSI: the enrichment ratio is at most 0.25.
The same measure for YWAW: at most 0.25.
Regarding PTTL, the enrichment ratio was at most 0.25.
The same measure for KDRC: at most 0.25; for DYYN: at most 0.25; for TMHC: at most 0.25.
As to HFYD, the enrichment ratio is at most 0.25.
The result for SLIL reads at most 0.25; that for DWDK, at most 0.25.
The same measure for SPYS: at most 0.25.
In the case of VIPV, the enrichment ratio was at most 0.25.
As for LRSQ, the enrichment ratio is at most 0.25.
The result for KHCV reads at most 0.25; that for KQDW, at most 0.25; that for NEES, at most 0.25.
The same measure for SIRS: 0.256.
The result for YVTW reads at most 0.25; that for PGRI, at most 0.25.
As for KEFF, the enrichment ratio was at most 0.25.
The result for FDHC reads at most 0.25; that for YCAW, at most 0.25; that for YFKL, at most 0.25.
The same measure for EKFK: at most 0.25.
As to VWFY, the enrichment ratio is at most 0.25.
RCVP: the enrichment ratio is at most 0.25.
Turning to VAAS, the enrichment ratio is at most 0.25.
The same measure for MMPW: at most 0.25; for VPAE: at most 0.25.
The same measure for YDQP: at most 0.25.
With DGFW, the enrichment ratio was at most 0.25.
The same measure for TDLR: 2.69; for GRDM: at most 0.25.
The result for HKKL reads at most 0.25.
The same measure for SAAW: 0.78; for YYMA: at most 0.25; for KLYR: at most 0.25.
For EIGG, the enrichment ratio was at most 0.25.
Turning to FHGI, the enrichment ratio was at most 0.25.
The same measure for NWIT: at most 0.25.
The result for ALTF reads 9.85; that for LIAQ, at most 0.25.
In the case of TRGI, the enrichment ratio was at most 0.25.
The same measure for LTPF: at most 0.25; for MCCL: 6.65; for HMGR: at most 0.25.
Take KVYS: the enrichment ratio was at most 0.25.
As to IPTG, the enrichment ratio is at most 0.25.
LFQT: the enrichment ratio was at most 0.25.
Regarding PHVH, the enrichment ratio is at most 0.25.
The result for FQWQ reads at most 0.25; that for AGSP, at most 0.25.
Consider VFDI, for which the enrichment ratio was at most 0.25.
The same measure for AIVH: 15; for YETP: at most 0.25.
Take ANHY: the enrichment ratio is at most 0.25.
The same measure for FWDD: at most 0.25.
For the variant FHSI, the enrichment ratio is at most 0.25.
The result for IKFR reads at most 0.25; that for VFWH, at most 0.25.
Regarding SPIY, the enrichment ratio was at most 0.25.
The same measure for VFSD: at most 0.25; for GMLL: 10.2; for QSMN: at most 0.25.
As for VGMH, the enrichment ratio is at most 0.25.
With PDCD, the enrichment ratio was at most 0.25.
The same measure for QFWI: at most 0.25.
In the case of GEIH, the enrichment ratio turned out to be 6.91.
As for QFDD, the enrichment ratio was at most 0.25.
The result for VYIL reads at most 0.25.
The result for TSLH reads 9.91; that for GTRW, at most 0.25; that for PVQH, at most 0.25.
On to ASYF, for which the enrichment ratio is at most 0.25.
The result for TIVF reads at most 0.25; that for YARC, at most 0.25.
The result for MNHI reads at most 0.25.
The same measure for FDTM: at most 0.25.
With YYFT, the enrichment ratio is at most 0.25.
Take PNFS: the enrichment ratio was at most 0.25.
As to AKFW, the enrichment ratio was at most 0.25.
The result for AHEH reads at most 0.25; that for TTGN, 21.9; that for KFFI, at most 0.25.
The result for QMPQ reads at most 0.25.
The same measure for VSVP: at most 0.25; for PHCV: at most 0.25.
For FVLS, the enrichment ratio is 0.344.
The result for WRFA reads at most 0.25; that for FFPG, at most 0.25.
On to ITAI, for which the enrichment ratio was at most 0.25.
The result for VCHL reads at most 0.25; that for YMHA, at most 0.25; that for WFAS, at most 0.25.
With DHKW, the enrichment ratio is at most 0.25.
For the variant MCRV, the enrichment ratio was at most 0.25.
